Results as given in PubChem BioAssay AID686978 (National Center for Advancing Translational Sciences (NCATS), 2013).
About 64,000 (15%) of roughly 420,000 compounds were called active. Inconclusive results, whose numbers are uncertain, are shown with a selection of clear calls. Calls come from the whole dose curve; as a rule, active = well fitted inhibition curve with a large enough effect; inconclusive = small, poorly fitted or top-dose-only effect; inactive = flat fitted curve, though single readings scatter. Potencies of inconclusive entries are left out as doubtful fits.

Assay: qHTS for Inhibitors of human tyrosyl-DNA phosphodiesterase 1 (TDP1): qHTS in cells in absence of CPT; note: nearly all actives have a fitted effect of over 55% in size
Settings: DT40 Tdp1-/- hTDP1 cells, no CPT, ATP luminescence, 48 h; activity change, negative = growth inhibition: at 46.2 µM (top of the series) unless noted
How it was run: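 Growth kinetics read by CellTiter-Glo luminescence after ≥48 hr at 37 °C. Cells: DT40 Tdp1-/- stably carrying human TDP1, 400 per well, compound exposure in the absence of CPT (DMSO vehicle).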
% is set by controls: 0 for no effect and ±100 for the full control effect; potency is the fitted concentration of half-maximal effect; tags give direction and shape of the fitted curve.

Row | SMILES | Potency | activity change, negative = growth inhibition
1 | N#CCSc1nc2ccc(N3CCOCC3)cc2c(=O)n1CCc1ccccc1 | active: 20.6 µM | –
2 | COc1ccccc1NC(=O)c1c(C)cc(C)nc1SCC(=O)Nc1ccc(C)c(C)c1 | inconclusive [inhibitor, single point] | –
3 | COc1ccccc1CNC(=O)CCCn1c(=O)c2ccccc2n(Cc2ccc(F)cc2)c1=O | inconclusive [inhibitor, full curve, poor fit] | –
4 | COc1ccc(CC(=O)N(c2ccccc2)c2nc(C)cs2)cc1 | active: 13 µM | –
5 | Cc1ccc(CCNC(=O)CN(c2cc(C)cc(C)c2)S(=O)(=O)c2c(C)noc2C)cc1 | – | inconclusive: -27.6% [inhibitor]
6 | COc1cccc(-c2nc(Cl)nc3cc(Cl)ccc23)c1 | inconclusive [inhibitor, partial curve, poor fit] | –
7 | CCOC(=O)c1nnn(CC(=O)Nc2cccc(F)c2)c1C(=O)OCC | inactive | –
8 | CC(C)C(=O)N1CCN(c2c(Cl)cccc2[N+](=O)[O-])CC1 | inconclusive [inhibitor, partial curve, poor fit] | –
9 | Cc1cc(O)ccc1NS(=O)(=O)c1ccc2c3c(cccc13)C(=O)N2 | inconclusive [inhibitor, partial curve, poor fit] | –
10 | COc1ccccc1Nc1nc(-c2ccc(F)cc2)c2c(n1)-c1ccccc1OC2 | inactive | –
11 | COc1nnc(-c2ccc(N3CCOCC3)c(NC(=O)C3CCCCC3)c2)c2ccccc12 | inconclusive [inhibitor, single point] | –
12 | Cc1ccc(C2=NN(C(=O)CSc3nccn3C)C(c3ccco3)C2)cc1 (stereo unspecified) | active: 20.6 µM | –
13 | O=C(Nc1cccc(-c2nc3cccnc3s2)c1)c1ccco1 | inconclusive [inhibitor, partial curve] | –
14 | O=c1cc(-c2ccco2)nc(-c2cccs2)o1 | inactive | –
15 | CC(C)Cc1ccccc1S(N)(=O)=O | inactive | –
16 | O=C(CC12CC3CC(C1)CC(CC(=O)N1CCCC1)(C3)C2)N1CCCC1 | inconclusive [inhibitor, single point] | –
17 | CN(C)c1cc[n+](CC(=O)Nc2ccc(Cl)cc2)cc1 | active: 3.26 µM | –
18 | CN1CCN(C(=S)c2ccc(-c3cc(Cl)ccc3Cl)o2)CC1 | inconclusive [inhibitor, single point] | –
19 | CN(Cc1ccccc1)C(=O)c1cccc(NC(=O)Cc2ccc(NC(=O)C3CCCN(C(=O)c4ccccc4)C3)cc2)c1 (stereo unspecified) | inconclusive [inhibitor, single point] | –
20 | COc1ccc(CNC(=O)[C@@H]2CC=C[C@@H]3CCN(Cc4ccccc4)C(=O)[C@@H]32)cc1 | inconclusive [inhibitor, single point] | –
21 | CCOc1ccc(CN2CCN(Cc3cnc(-c4ccccc4)s3)CC2CCO)cc1 (stereo unspecified) | active: 20.6 µM | –
22 | O=S(=O)(Nc1nc2ccccc2nc1Cl)c1ccc(Cl)cc1 | inconclusive [inhibitor, single point] | –
23 | Cc1ccc(NC(=O)CC2COc3ccccc3O2)cc1 (stereo unspecified) | inconclusive [inhibitor, partial curve] | –
24 | C=CCn1c(SCc2cccc3ccccc23)nnc1-c1cccnc1 | inconclusive [inhibitor, partial curve, poor fit] | –

Row | SMILES | Potency | activity change, negative = growth inhibition
25 | COc1ccc(CCNS(=O)(=O)c2ccc(N3CCCCS3(=O)=O)cc2)cc1OC | active: 20.6 µM | –
26 | Cc1nc2c(-c3ccccc3)c(C)nn2c(C)c1CCC(=O)NCc1ccc(Cl)cc1 | inconclusive [inhibitor, single point] | –
27 | Cc1ccc(CNC(=O)CCCN2C(=O)CCn3nc(-c4cn(C)c5ccccc45)cc32)cc1 | inactive | –
28 | Cc1ccc(Cn2c(CCCNC(=O)c3ccco3)nc3ccccc32)cc1 | inconclusive [inhibitor, single point] | –
29 | O=C(CCn1cnnn1)N1CCCC(Nc2ccc(F)cc2)C1 (stereo unspecified) | inactive | –
30 | CC1=CC(c2ccccc2)n2nc(NC(=O)CCC(=O)O)nc2N1 (stereo unspecified) | inconclusive [inhibitor, single point] | –
31 | Cc1cc(C(=O)NN=Cc2c(C)[nH]c3ccccc23)c(C)o1 | inconclusive [inhibitor, partial curve] | –
32 | O=c1cc(/C=C/c2ccccc2)oc2ccccc12 | inconclusive [inhibitor, single point] | –
33 | Cc1cc(NC(=O)/C=C/C(=O)N(c2ccccc2C)C(C(=O)NC2CCCC2)c2ccc(F)cc2)no1 (stereo unspecified) | active: 23.1 µM | –
34 | O=C(NCc1ccccc1)C(=O)NCC1OCCN1C(=O)c1cccs1 (stereo unspecified) | inactive | –
35 | COc1ccc(Nc2nc(-c3cccs3)nc3ccccc23)cc1S(=O)(=O)N1CCOCC1 | active: 3.26 µM | –
36 | CCOC(=O)c1c(N)n(C2CC(C)(C)NC(C)(C)C2)c2nc3ccccc3nc12 | inactive | –
37 | Cc1oc(-c2cccc(C(F)(F)F)c2)nc1CN1CCN(c2ccccn2)CC1 | inconclusive [inhibitor, single point] | –
38 | COc1cccc(CC2(CO)CCCN(Cc3cn[nH]c3C3CCCCC3)C2)c1 (stereo unspecified) | inconclusive [inhibitor, single point] | –
39 | Cn1cc(S(=O)(=O)N2CCC3(CC2)OCCO3)c(=O)n(C)c1=O | inactive | –
40 | O=C(CN1C(=O)NC2(CCCCC2)C1=O)Nc1ccc(Cl)c(S(=O)(=O)N2CCOCC2)c1 | inconclusive [inhibitor, partial curve] | –
41 | CCOC(=O)c1ccc(NC(=O)c2nc(SC(C)C)ncc2Cl)cc1 | active: 16.4 µM | –
42 | COc1ccc(CC(O)CO)cc1OCc1ccccc1 (stereo unspecified) | inactive | –
43 | COc1cc(/C=C2\C(=N)N3N=CSC3=NC2=O)ccc1OS(=O)(=O)c1ccccc1 | inconclusive [inhibitor, single point] | –
44 | CN(Cc1ccccc1)C(=O)c1cccc(NC(=O)Cc2ccc(NC(=O)C3CCCN(C(=O)CCc4ccccc4)C3)cc2)c1 (stereo unspecified) | active: 14.6 µM | –
45 | COc1cc(/C=C/C(=O)Nc2cccc(S(=O)(=O)NC3=NCCCCC3)c2)ccc1OCC#N | active: 25.9 µM | –
46 | CC(Sc1nc(-c2ccccc2)cc(=O)[nH]1)C(=O)O (stereo unspecified) | inactive | –
47 | Cc1ccc(OCc2nc3ccccc3n2C)cc1 | inconclusive [inhibitor, single point] | –
48 | CCOc1ccc(NC(=O)CSc2nnc3c(n2)[nH]c2ccc(S(=O)(=O)N4CCOCC4)cc23)cc1 | inconclusive [inhibitor, single point] | –

Row | SMILES | Potency | activity change, negative = growth inhibition
49 | O=C(Cn1cnc2onc(-c3ccc(F)cc3)c2c1=O)Nc1cccc(C(F)(F)F)c1 | active: 20.6 µM | –
50 | CS(=O)(=O)N(CC(=O)NCCSCc1ccccc1)c1cc(C(F)(F)F)ccc1Cl | active: 14.6 µM | –
51 | O=C(OCC(=O)N1CCc2ccccc2C1)c1c(F)cccc1Cl | inconclusive [inhibitor, single point] | –
52 | O=CN(Cc1ccccc1)c1cc([N+](=O)[O-])ccc1OCc1ccccc1 | inconclusive [inhibitor, single point] | –
53 | Cc1ccc(NC(=O)COn2nnc3ccc(S(=O)(=O)N(C)C)cc32)cc1F | inconclusive [inhibitor, single point] | –
54 | COc1ccccc1CNC(=O)c1cc2cccc3c2n1CC(C)S3 (stereo unspecified) | active: 23.1 µM | –
55 | CCOC(=O)c1nnn(CC(=O)Nc2cc(C)cc(C)c2)c1C(=O)OCC | inconclusive [inhibitor, single point] | –
56 | C1=C(c2ccccc2)Nc2ccccc2N=C1c1ccccc1 | inconclusive [inhibitor, single point] | –
57 | O=C(NC(=S)Nc1ccccc1N1CCN(C(=O)c2ccccc2)CC1)c1ccccc1F | active: 18.4 µM | –
58 | CCc1ccc(NC(=O)N2c3ccccc3Sc3ccccc32)cc1 | inconclusive [inhibitor, single point] | –
59 | COc1ccccc1N(CC(O)Cn1c2ccccc2c2ccccc21)S(=O)(=O)c1ccccc1 (stereo unspecified) | inconclusive [inhibitor, single point] | –
60 | Cc1ccc(C)c(Cn2cnc3c(cnn3-c3ccc(F)cc3)c2=O)c1 | inconclusive [inhibitor, single point] | –
61 | O=C(/C=C/c1cccs1)c1cc(F)ccc1OC(=O)N1CCOCC1 | inconclusive [inhibitor, single point] | –
62 | COC(=O)CN1C(C)=Nc2ccc(Br)cc2C1c1ccccc1 (stereo unspecified) | inactive | –
63 | CC(=O)N1CCN(S(=O)(=O)c2cccc(C(=O)Nc3ccccc3N3CCCCC3)c2)CC1 | inconclusive [inhibitor, single point] | –
64 | COc1ccc2cc3c(N)nn(C(=O)c4cccc([N+](=O)[O-])c4)c3nc2c1 | inconclusive [inhibitor, full curve] | –
65 | COc1ccc(OC)c(NC(=S)NCCC(c2ccccc2)c2ccccc2)c1 | active: 14.6 µM | –
66 | COc1ccc(N=C(NN)c2ccc3ccccc3n2)cc1 | inconclusive [inhibitor, partial curve, poor fit] | –
67 | CCN(C#N)c1nc(NC(C)C)nc(NC(C)(C)C)n1 | inactive | –
68 | Cc1ccc([C@@H]2[C@@H]3C(=O)N(C)C(=O)[C@@H]3[C@@H]3C(=O)Nc4ccccc4C(=O)N23)cc1 | inactive | –
69 | CCN(CC)C(=O)c1cc([N+](=O)[O-])cc2c1-c1ccc([N+](=O)[O-])cc1C2=C(C#N)C#N | active: 16.4 µM | –
70 | COc1cccc(C(=O)NC2CCNCC2)c1 | inactive | –
71 | CCC(c1nnnn1Cc1ccc2c(c1)OCO2)N1CCN(c2ccc(F)cc2)CC1 (stereo unspecified) | inconclusive [inhibitor, partial curve, poor fit] | –
